{
  "source": "PubChem BioAssay AID886",
  "about": "(National Center for Advancing Translational Sciences (NCATS), 2007)",
  "note": "Where “and” joins values, the source holds several entries; their conditions need not be identical. Equal values may be shown once. Out of some 73,000 compounds screened, about 2,500 (3.4%) were called active. This list was built around the results that the source calls inconclusive (neither active nor inactive); the mix of calls is not that of the screen. Calls follow the shape of the dose curve; as a rule, active = well fitted inhibition curve with a large enough effect; inconclusive = small, poorly fitted or top-dose-only effect; inactive = no such curve, though single readings can be large or run the other way. Potencies beside an inconclusive call are fits to weak or partial responses and may not hold up. % is scaled to controls: 0 for no effect and ±100 for the full control effect; potency is read from the fitted curve at half-maximal effect; tags tell the direction and shape of the fitted curve.",
  "data": [
    {"target": "3-hydroxyacyl-CoA dehydrogenase type-2 (Homo sapiens) (UniProt Q99714)", "test": "qHTS Assay for Inhibitors of HADH2 (Hydroxyacyl-Coenzyme A Dehydrogenase, Type II); also: nearly all actives have a fitted effect of over 60% in size", "conditions": "recombinant HADH2, NADH fluorescence, beta-hydroxybutyryl-CoA; activity change, negative = inhibition: at 57.1 µM (top of the series)", "outline": "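Activity measured as NADH fluorescence gain (360/450 nm), taken as the change between first and last reads of a 4-min kinetic run. Conditions: pH 9.0 Tris buffer, 20 nM E. coli-expressed His-tagged enzyme, 1 mM NAD+, 90 uM beta-hydroxybutyryl-CoA; 15-min compound preincubation.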", "values": [
      {"smiles": "Clc1cccc(-c2nc3nc4ccccc4nc3n2Cc2ccco2)c1", "Potency": "inconclusive: 31.6 µM [inhibitor, single point]"},
      {"smiles": "COCCNc1ccnc(-c2ccccc2C)n1", "Potency": "inconclusive: 31.6 µM [inhibitor, single point]"},
      {"smiles": "Brc1c(CSc2nncn2-c2ccccc2)nc2ncccn12", "Potency": "active: 25.1 µM"},
      {"smiles": "CC(C)Cc1cc(-c2ccco2)c(C#N)c(N)n1", "Potency": "inconclusive: 6.31 µM [inhibitor, single point]"},
      {"smiles": "CCN(CC)C(=O)NC1CC2CCCC(C1)N2Cc1ccccc1", "note": "(centres undefined)", "activity change, negative = inhibition": "inactive: 7.43%"},
      {"smiles": "O=S(=O)(NCC(O)COCc1ccco1)c1cccs1", "note": "(centres undefined)", "Potency": "inconclusive: 25.1 µM [inhibitor, single point]"},
      {"smiles": "CCOc1ccc2cc(S(=O)(=O)n3ccnc3C)ccc2c1", "Potency": "inconclusive: 25.1 µM [inhibitor, single point]"},
      {"smiles": "CCOc1ccccc1NC(=O)CCC(=O)Nc1ccc2nc(N3CCN(C)CC3)cc(C)c2c1", "Potency": "inconclusive: 25.1 µM [inhibitor, single point]"},
      {"smiles": "CCN(CC)C(=O)c1c[nH]c2ccc(S(=O)(=O)Nc3cc(C)cc(C)c3)cc2c1=O", "activity change, negative = inhibition": "inactive: 0.791%"},
      {"smiles": "CCOC(=O)C1=C(C)OC(N)=C(C#N)C1c1cc2c(cc1Br)OCO2", "note": "(centres undefined)", "Potency": "inconclusive: 20 µM [inhibitor, partial curve]"},
      {"smiles": "CC1CN2C(CCC(C)C2c2ccc(Br)cc2)C(=O)O1", "note": "(centres undefined)", "activity change, negative = inhibition": "inactive: -10.1% [at 11.4 µM] and inactive: 12.8% [at 11.4 µM] and inactive: 8.77% [at 11.4 µM]"},
      {"smiles": "CN1CCc2c(sc(/N=C/c3ccco3)c2C(N)=O)C1", "Potency": "active: 31.6 µM"},
      {"smiles": "O=C(Nc1cccc2ccccc12)N1CCN(c2ccccc2)CC1", "Potency": "inconclusive: 31.6 µM [inhibitor, single point]"},
      {"smiles": "Cc1nc(N=Nc2cc(S(=O)(=O)O)c3cc([N+](=O)[O-])cc(S(=O)(=O)O)c3c2)c(COP(=O)(O)O)c(C=O)c1O", "Potency": "active: 7.94 µM"},
      {"smiles": "CNC(=O)c1cc2c(=O)n3cccc(C)c3nc2n1C", "Potency": "inconclusive: 10 µM [inhibitor, partial curve]"},
      {"smiles": "Cc1cccc(C)c1NC(=O)CSc1nnc(-c2ccncc2)n1Cc1ccco1", "Potency": "inconclusive: 6.31 µM [inhibitor, single point]"},
      {"smiles": "CCOC(=O)Nc1ccc2c(C)cc(=O)oc2c1", "Potency": "active: 3.16 µM"},
      {"smiles": "CCCCCn1c(-c2ccco2)nc2nc3ccccc3nc21", "Potency": "active: 20 µM"},
      {"smiles": "COc1cccc(-c2cc3nc4c(c(N5CCC6(CC5)OCCO6)n3n2)CCCC4)c1", "Potency": "inconclusive: 31.6 µM [inhibitor, single point]"},
      {"smiles": "CCCCCS(=O)(=O)CCCCCCCCCCn1c(-c2ccc(O)cc2)c(C)c2cc(O)ccc21", "Potency": "inconclusive: 39.8 µM [inhibitor, single point]"},
      {"smiles": "O=C(CSc1nc2ccccc2c2ccccc12)c1ccccc1", "Potency": "inconclusive: 1.58 µM [inhibitor, partial curve]"},
      {"smiles": "CC(C)CCN1CCc2nc(-c3ccccc3)c3c(c2C1)COC(C)C3", "note": "(centres undefined)", "activity change, negative = inhibition": "inactive: 11.7% [at 11.4 µM]"},
      {"smiles": "CSc1nc(N)c(C#N)c(-c2ccc(Cl)cc2)c1C#N", "activity change, negative = inhibition": "inactive: -20.5%"},
      {"smiles": "CC1(C)Cc2ccccc2-c2n[nH]c(=S)n21", "Potency": "inconclusive: 25.1 µM [inhibitor, partial curve]"},
      {"smiles": "Cc1ccc(C2C3=C(CCCC3=O)Nc3nc(SCC(=O)NCc4ccco4)[nH]c(=O)c32)cc1", "note": "(centres undefined)", "Potency": "inconclusive: 15.8 µM [inhibitor, partial curve]"},
      {"smiles": "Cc1ccccc1CS(=O)(=O)CCC(=O)N1CCN(c2ccc(N3CCOCC3)nn2)CC1", "Potency": "inconclusive: 31.6 µM [inhibitor, single point]"},
      {"smiles": "Cc1cc2n(n1)C(c1ccc3c(c1)OCO3)Nc1ccccc1-2", "note": "(centres undefined)", "Potency": "inconclusive: 31.6 µM [inhibitor, single point]"},
      {"smiles": "CC(=O)Nc1cccc(C)c1", "Potency": "inconclusive: 31.6 µM [inhibitor, partial curve]"},
      {"smiles": "Cn1nnnc1SCC1=C(C(=O)O)N2C(=O)[C@@H](NC(=O)[C@@H](O)c3ccccc3)[C@@H]2SC1", "Potency": "inconclusive: 10 µM [inhibitor, partial curve, poor fit]"},
      {"smiles": "O=C(CSc1nc2ccccc2c(=O)n1CC1CCCO1)N1CCN(c2ccccc2)CC1", "note": "(centres undefined)", "activity change, negative = inhibition": "inactive: -3.67%"},
      {"smiles": "COc1ccccc1CCn1cnc2c3cc(C)ccc3n(C)c2c1=O", "Potency": "inconclusive: 39.8 µM [inhibitor, single point]"},
      {"smiles": "CCCN(CCO)Cc1cccc(Oc2ccccc2)c1", "Potency": "inconclusive: 1.26 µM [inhibitor, single point]"},
      {"smiles": "COc1ccc(-c2ccc(-c3noc(C)n3)c(OC)n2)cc1", "Potency": "inconclusive: 39.8 µM [inhibitor, single point]"},
      {"smiles": "CC(=O)Nc1ccc(S(=O)(=O)c2c(N)n(CCN3CCOCC3)c3nc4ccccc4nc23)cc1", "Potency": "inconclusive: 31.6 µM [inhibitor, single point]"},
      {"smiles": "COC(=O)c1c(C#N)c(N)nc2c1CCCC2", "Potency": "active: 6.31 µM"},
      {"smiles": "O=C(CCn1c(=O)oc2ccccc21)N1CCCCCC1", "activity change, negative = inhibition": "inactive: 6.75%"},
      {"smiles": "COC(=O)N1CCC2(CCN(C(=O)Nc3cccc(C#N)c3)CC2)CC1", "Potency": "inconclusive: 0.0316 µM [inhibitor, full curve, poor fit]"},
      {"smiles": "COC(=O)c1ccc(CCc2cc(O)ccc2O)cc1", "Potency": "active: 1.26 µM"},
      {"smiles": "COc1cc(-c2cc3nc(C)c(C)c(=O)n3[nH]2)cc(OC)c1OC", "Potency": "active: 25.1 µM"},
      {"smiles": "Cc1cc(N2CCN(C(=O)c3ccco3)CC2)n2nc(-c3cccc(F)c3)cc2n1", "Potency": "inconclusive: 31.6 µM [inhibitor, single point]"},
      {"smiles": "C=CCn1c(SCC(=O)Nc2ccc(C(=O)OCC)cc2)nnc1-c1cccs1", "Potency": "inconclusive: 39.8 µM [inhibitor, single point]"},
      {"smiles": "O=C1c2ccccc2-c2cc([N+](=O)[O-])c([N+](=O)[O-])cc21", "Potency": "inconclusive: 0.794 µM [inhibitor, full curve]"},
      {"smiles": "Cc1cc(C)n2cc(CSc3nnnn3C)nc2n1", "Potency": "active: 31.6 µM"},
      {"smiles": "COc1ccc(C2=CC(c3c(C)nn(-c4ccccc4)c3Cl)n3nnnc3N2)cc1OC", "note": "(centres undefined)", "Potency": "inconclusive: 31.6 µM [inhibitor, single point]"},
      {"smiles": "O=c1c(-c2ccc(F)cc2)nc2cnc(N3CCNCC3)nc2n1C1CC1", "activity change, negative = inhibition": "inactive: 2.75%"},
      {"smiles": "COC(=O)c1cc(-c2c(C)oc3cc(O)ccc3c2=O)c(C)o1", "Potency": "active: 31.6 µM"},
      {"smiles": "COC(=O)c1cc(-c2cccc(OC)c2)on1", "activity change, negative = inhibition": "inactive: 8.23%"},
      {"smiles": "Cc1ccccc1C(=O)NC1CC(C)(C)NC(C)(C)C1", "activity change, negative = inhibition": "inactive: 2.03%"},
      {"smiles": "Cc1csc(SCC(=O)Nc2ccccn2)n1", "Potency": "inconclusive: 31.6 µM [inhibitor, single point]"},
      {"smiles": "N#Cc1ccccc1-n1c(N)c(C(=O)N2CCCC2)sc1=S", "Potency": "active: 2.51 µM"},
      {"smiles": "Cc1cccc(NCc2ccccc2O)n1", "Potency": "inconclusive: 39.8 µM [inhibitor, single point]"},
      {"smiles": "Nn1c(Nc2ccccc2)nc2sc3c(c2c1=O)CCC3", "Potency": "inconclusive: 39.8 µM [inhibitor, single point]"},
      {"smiles": "CC1CC(C)CN(Cc2nc3c(c(=O)n(C)c(=O)n3C)n2Cc2ccccc2Cl)C1", "note": "(centres undefined)", "Potency": "inconclusive: 25.1 µM [inhibitor, partial curve]"},
      {"smiles": "CC1CCc2c(sc(N)c2C(N)=O)C1", "note": "(centres undefined)", "Potency": "active: 15.8 µM"},
      {"smiles": "Cc1noc(C)c1C(=O)N1CCC2(CCCN(C(c3ccccc3)c3ccccc3)C2)CC1", "activity change, negative = inhibition": "inactive: 1.78%"},
      {"smiles": "Cc1ccc2c(c1)c(C)c(C)n2CC(O)Cn1nc(C)c(Br)c1C", "note": "(centres undefined)", "Potency": "inconclusive: 20 µM [inhibitor, single point]"},
      {"smiles": "Cc1csc2nc(=O)c3ccccc3n12", "Potency": "active: 25.1 µM"},
      {"smiles": "CCOC(=O)c1cc2oc(C)cc2n1CC(=O)OC1CCCCC1", "Potency": "inconclusive: 25.1 µM [inhibitor, single point]"},
      {"smiles": "CCN1CCN(Cc2ccc(NC(=O)Nc3cccs3)cc2)CC1", "Potency": "inconclusive: 39.8 µM [inhibitor, single point]"},
      {"smiles": "COCCn1nnnc1C(c1ccc(O)c(OC)c1)N1CCc2ccccc2C1", "note": "(centres undefined)", "Potency": "inconclusive: 1 µM [inhibitor, full curve]"},
      {"smiles": "COc1ccc(-c2ccc(-c3noc(-c4ccccc4OC)n3)c(OC)n2)cc1", "Potency": "active: 12.6 µM"},
      {"smiles": "Cc1noc(C)c1COC(=O)CCCc1nc2ccccc2s1", "activity change, negative = inhibition": "inactive: -5.95%"},
      {"smiles": "CC(C)OCCCn1c(=NC(=O)c2ccncc2)c(C#N)cc2c(=O)n3ccccc3nc21", "Potency": "active: 3.16 µM"},
      {"smiles": "O=C1CC(N2CCOCC2)C(=O)N1c1cc(Cl)cc(Cl)c1", "note": "(centres undefined)", "Potency": "inconclusive: 31.6 µM [inhibitor, single point]"},
      {"smiles": "O=C(c1cnccn1)N1CCC2(CC1)CN(c1ccncc1)C2", "Potency": "inconclusive: 6.31 µM [inhibitor, single point]"},
      {"smiles": "Cc1cc(Nc2ccccc2Br)n2nc(C)nc2n1", "activity change, negative = inhibition": "inactive: 2.02%"},
      {"smiles": "CCCCc1c(O)n2c(nc3ccccc32)[nH]c1=O", "activity change, negative = inhibition": "inactive: -4.81%"},
      {"smiles": "CCOc1cc(/C=N/NC(=O)c2cc(-c3cccc(OC)c3)n[nH]2)ccc1O", "Potency": "inconclusive: 15.8 µM [inhibitor, partial curve]"},
      {"smiles": "Cc1ccc(-n2nc(-c3ccco3)cc2C(=O)NCc2cccnc2)cc1", "Potency": "inconclusive: 7.94 µM [inhibitor, partial curve]"},
      {"smiles": "CC(C)(C)OC(=O)N1CCC[C@H]1c1nnc(SCc2ccccc2F)o1", "activity change, negative = inhibition": "inactive: 17.8%"},
      {"smiles": "Cc1cc(=O)oc2cc(OCC(=O)N3CCc4ccccc4C3)ccc12", "Potency": "inconclusive: 39.8 µM [inhibitor, single point]"},
      {"smiles": "O=S(=O)(c1cccc2c(Cl)cccc12)N1CCCNCC1", "Potency": "inactive"},
      {"smiles": "Cc1oc2cc(O)ccc2c(=O)c1Oc1ccccc1Br", "Potency": "inconclusive: 39.8 µM [inhibitor, single point]"},
      {"smiles": "CC(C)CCSc1nc(N)c(C#N)cc1C#N", "Potency": "inconclusive: 39.8 µM [inhibitor, single point]"}
    ]}
  ]
}
